In all, about 270,000 compounds went through this assay and about 620 (0.23%) were called active. The shares of active, inactive and inconclusive entries below differ from those in the screen. The call rests on the fitted dose curve; in most records, active means well fitted inhibition curve with a large enough effect in the polarisation, with a control signal flat (not every such curve was filed as active); inconclusive means small, poorly fitted or top-dose-only effect, or effect the other way, or a change in a side signal; inactive means no such curve, though single readings can be large or run the other way; the % refers to the polarisation. A potency beside an inconclusive call is a rough fit, not a confirmed value. A note “side channel” means that the fit belongs to a control or component signal, not to the main read-out.
What follows are compounds tested against Menin (Homo sapiens) (UniProt O00255) (assay: qHTS Assay for Inhibitors Targeting the Menin-MLL Interaction in MLL Related Leukemias: Competition With Texas Red Labeled MLL-derived Mutant Peptide). Conditions: fluorescence polarization; FP activity change, negative = inhibition: at 61.6 µM (top of the series).
Sequence of UniProt O00255 (O00255 whole entry, looked up): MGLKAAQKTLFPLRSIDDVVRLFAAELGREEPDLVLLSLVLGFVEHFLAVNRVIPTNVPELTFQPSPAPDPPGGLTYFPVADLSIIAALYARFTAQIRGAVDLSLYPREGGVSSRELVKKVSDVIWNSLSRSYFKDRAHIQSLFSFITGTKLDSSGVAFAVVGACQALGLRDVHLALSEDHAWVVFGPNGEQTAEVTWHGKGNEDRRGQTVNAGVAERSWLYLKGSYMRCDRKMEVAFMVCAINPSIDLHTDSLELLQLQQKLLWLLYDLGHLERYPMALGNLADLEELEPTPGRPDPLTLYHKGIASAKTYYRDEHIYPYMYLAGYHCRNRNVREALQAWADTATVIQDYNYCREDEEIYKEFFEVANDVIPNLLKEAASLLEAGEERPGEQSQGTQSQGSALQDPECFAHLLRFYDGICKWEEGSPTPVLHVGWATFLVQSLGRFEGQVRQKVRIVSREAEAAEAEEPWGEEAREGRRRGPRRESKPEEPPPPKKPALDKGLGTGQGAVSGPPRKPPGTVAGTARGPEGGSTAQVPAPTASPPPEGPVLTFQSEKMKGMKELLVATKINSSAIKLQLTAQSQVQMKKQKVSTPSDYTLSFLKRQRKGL
Potency means the concentration at half of the fitted maximal effect; tags describe the fitted curve by direction and shape or compound fluorescence and quenching.
Wherever FP activity change, negative = inhibition is given: % of control where 0% means no effect.

Potency, inconclusive:
CC1(C)Cc2c(sc(NC(=O)c3ccc(S(=O)(=O)N4CCCCCC4)cc3)c2C#N)C(C)(C)N1 25.1 µM [quencher, side channel, partial curve], O=C(Nc1ccc(Cl)c(Cl)c1)Nc1cc(C(=O)NC2CC2)ccc1Cl 20 µM [inhibitor, single point], Cc1ccc(Nc2nc(-c3cccnc3)cs2)cc1Cl 12.6 µM [quencher, side channel, partial curve], COc1ccc(-c2cc(C)no2)cc1S(=O)(=O)N1CCN(c2ccc([N+](=O)[O-])cc2)CC1 6.31 µM [quencher, side channel, partial curve], CCc1ccc(NC(=O)C2CCCN(S(=O)(=O)c3ccc4c(c3)CC(C)N4C(C)=O)C2)cc1 (stereo not drawn) 6.31 µM [inhibitor, single point], Cc1ccc(CNc2nc(-c3cccs3)nc3ccccc23)cc1 31.6 µM [quencher, side channel, partial curve], CCCCCCCCCCS(=O)(=O)N/N=C/c1ccc([N+](=O)[O-])cc1 35.5 µM [quencher, side channel, single point], O=C(NCc1cccs1)c1cc(-c2cccs2)on1 39.8 µM [inhibitor, single point], COc1ccc(OC)c(Nc2nc(-c3sc(NC(=O)c4ccccc4)nc3C)cs2)c1 17.8 µM [quencher, side channel, partial curve], Nc1c(C(=O)Nc2ccc(F)cc2)sc2nc(-c3ccco3)ccc12 14.1 µM [quencher, side channel, partial curve], O=C(CNc1ccc2ccccc2c1)N/N=C/c1cc2ccccc2nc1Cl 28.2 µM [quencher, side channel, partial curve], O=C(CCc1ccccc1)NC(=S)Nc1cccc(Br)c1 22.4 µM [quencher, side channel, single point], O=C(COc1ccc2cc(-c3ccccc3)c(=O)oc2c1)NCC1CCC(C(=O)O)CC1 (stereo not drawn) 39.8 µM [inhibitor, partial curve], C#Cc1ccc(C(=O)NCc2ccc(N3CCCC3=O)cc2)cc1 0.355 µM [inhibitor, full curve, poor fit], COc1cc(/C=N/NC(=O)C(Cc2c[nH]c3ccccc23)NC(=O)OCC(C)C)cc([N+](=O)[O-])c1OCc1ccccc1 (stereo not drawn) 31.6 µM [quencher, side channel, single point], CSc1nc(N(C)CCO)c2sc3nc(-c4ccco4)c4c(c3c2n1)CCC4 25.1 µM [quencher, side channel, partial curve], CCOc1ccc(CN2CCN(Cc3nc4c(s3)CCCC4)CC2CCO)cc1 (stereo not drawn) 2 µM [fluorescent, side channel, full curve], Cc1cccc(C(=O)NN2C(=O)C3C(c4ccccc4)C=CC(c4ccccc4)C3C2=O)c1 (stereo not drawn) 39.8 µM [inhibitor, single point], O=C(Nc1cccc([N+](=O)[O-])c1)Nc1ccc2c(c1)CCC2 10 µM [quencher, side channel, partial curve], COc1ccc(Cl)cc1C(=O)NC(=S)Nc1cc(-c2nc3ccccc3[nH]2)ccc1C 10 µM [inhibitor, partial curve], COc1ccc2ccccc2c1-c1csc(N)n1 12.6 µM [fluorescent, side channel, partial curve], COc1ccc(CC(=O)Nc2nc(-c3ccncc3)cs2)cc1 31.6 µM [quencher, side channel, single point], CC(NC(=O)c1cc([N+](=O)[O-])cc([N+](=O)[O-])c1)C1CC2CCC1C2 (stereo not drawn) 10 µM [quencher, side channel, single point], O=[N+]([O-])c1ccccc1CN1CCN(c2ncccn2)CC1 39.8 µM [inhibitor, single point], N#Cc1c(N)nc2c(c1-c1ccc3c(c1)OCO3)CCc1ccccc1-2 39.8 µM [inhibitor, single point], COc1cc(NS(=O)(=O)c2cccc([N+](=O)[O-])c2)c2ncccc2c1 17.8 µM [quencher, side channel, partial curve], CCOc1ccc(CNC(=O)c2ccc(NC(=O)C3=CSCCO3)cc2)cc1 39.8 µM [fluorescent, side channel, single point], CCCc1nc(SCC(=O)Nc2nnc(CC)s2)c2c(=O)n(C)c(=O)n(C)c2n1 35.5 µM [fluorescent, side channel, single point], NS(=O)(=O)c1ccc(NC(=O)c2ccc(CNS(=O)(=O)c3cc(C(F)(F)F)ccc3Cl)cc2)cc1 39.8 µM [fluorescent, single point]

FP activity change, negative = inhibition, inactive:
O=C(O)c1ccc(CNc2ccccc2C(=O)O)cc1 20.6%, COC(=O)C1=CN(C2CC2)C=C(C(=O)OC)C1c1ccccc1OC -9.57%, C[N+]12CCCC[C@@H]1CCC(=C(c1cccs1)c1cccs1)C2 (stereo partly drawn) 1.61%, COC(=O)c1[nH]c2cc(OC)ccc2c1NC(=O)CCN1CCN(c2cccc(C)c2C)CC1 1.69%, CCCC/C(O)=C/c1nc2ccccc2[nH]c1=O 0.0717%, CCOC(=O)C1C(=O)CC(C)(O)C(C(=O)OCC)C1c1ccco1 (stereo not drawn) 16.2%, O=C(NCCCNc1ccc(C(F)(F)F)cc1[N+](=O)[O-])c1ccc(F)cc1 15.6%, C=CCNC(=O)N1CCc2nc(COc3ccccc3)c3c(c2C1)CO[C@@H](C)C3 -8.19% [at 11.7 µM], O=C(NCCN1CCN(S(=O)(=O)c2ccc([N+](=O)[O-])cc2)CC1)C(=O)Nc1ccccc1 3.79%
